Measured values as given in article PMC9911399, “Two distinct binding modes provide the RNA-binding protein RbFox with extraordinary sequence specificity”.
Residue numbers refer to the chain shown, from its start. The list shows a part of the results.

T1: RBFOX1 RRM RbFoxmut (Fox-RRM*) (Homo sapiens, UniProt Q9NWB1 109-208, R118D;E147R;N151S;E152T)
T1 sequence: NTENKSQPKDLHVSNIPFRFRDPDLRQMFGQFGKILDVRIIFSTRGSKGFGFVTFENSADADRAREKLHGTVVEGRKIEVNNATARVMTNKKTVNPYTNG

B1: ACCAAAG (DNA:RNA)
RNA: GGGAGACCGGAAUUCAGAUUGUCCACCAAAGUUAAAUCCCGUCGUAGCCACCA
DNA 1: CAATCTGAATTCCGGTCTCCC
DNA 2: TGGTGGCTACGACGGGATT
B2: GUUUACG (DNA:RNA)
RNA: B1 RNA with A25G, C26U, C27U, A28U, A30C
DNA 1: CAATCTGAATTCCGGTCTCCC
DNA 2: TGGTGGCTACGACGGGATT
B3: UACUAGG (DNA:RNA)
RNA: B1 RNA with A25U, C26A, A28U, A30G
DNA 1: CAATCTGAATTCCGGTCTCCC
DNA 2: TGGTGGCTACGACGGGATT
B4: CCAGCCU (DNA:RNA)
RNA: B1 RNA with A25C, C27A, A28G, A29C, A30C, G31U
DNA 1: CAATCTGAATTCCGGTCTCCC
DNA 2: TGGTGGCTACGACGGGATT
B5: AGAGUAC (DNA:RNA)
RNA: B1 RNA with C26G, C27A, A28G, A29U, G31C
DNA 1: CAATCTGAATTCCGGTCTCCC
DNA 2: TGGTGGCTACGACGGGATT
B6: UACUUAG (DNA:RNA)
RNA: B1 RNA with A25U, C26A, A28U, A29U
DNA 1: CAATCTGAATTCCGGTCTCCC
DNA 2: TGGTGGCTACGACGGGATT
B7: GAUGCUG (DNA:RNA)
RNA: B1 RNA with A25G, C26A, C27U, A28G, A29C, A30U
DNA 1: CAATCTGAATTCCGGTCTCCC
DNA 2: TGGTGGCTACGACGGGATT
B8: UUGAUCA (DNA:RNA)
RNA: B1 RNA with A25U, C26U, C27G, A29U, A30C, G31A
DNA 1: CAATCTGAATTCCGGTCTCCC
DNA 2: TGGTGGCTACGACGGGATT
B9: GUAUACC (DNA:RNA)
RNA: B1 RNA with A25G, C26U, C27A, A28U, A30C, G31C
DNA 1: CAATCTGAATTCCGGTCTCCC
DNA 2: TGGTGGCTACGACGGGATT
B10: AAUUUAA (DNA:RNA)
RNA: B1 RNA with C26A, C27U, A28U, A29U, G31A
DNA 1: CAATCTGAATTCCGGTCTCCC
DNA 2: TGGTGGCTACGACGGGATT
B11: AGAGCCU (DNA:RNA)
RNA: B1 RNA with C26G, C27A, A28G, A29C, A30C, G31U
DNA 1: CAATCTGAATTCCGGTCTCCC
DNA 2: TGGTGGCTACGACGGGATT
B12: CUUCGUU (DNA:RNA)
RNA: GGGAGACCGGAAUUCAGAUUGUCCCUUCGUUUUAAAUCCCGUCGUAGCCACCA
DNA 1: CAATCTGAATTCCGGTCTCCC
DNA 2: TGGTGGCTACGACGGGATT
B13: AUUUGGU (DNA:RNA)
RNA: B12 RNA with C25A, C28U, U30G
DNA 1: CAATCTGAATTCCGGTCTCCC
DNA 2: TGGTGGCTACGACGGGATT
B14: CUUGGAA (DNA:RNA)
RNA: B12 RNA with C28G, U30A, U31A
DNA 1: CAATCTGAATTCCGGTCTCCC
DNA 2: TGGTGGCTACGACGGGATT
B15: CUUUGUU (DNA:RNA)
RNA: B12 RNA with C28U
DNA 1: CAATCTGAATTCCGGTCTCCC
DNA 2: TGGTGGCTACGACGGGATT
B16: GCGCAGG (DNA:RNA)
RNA: B1 RNA with A25G, C27G, A28C, A30G
DNA 1: CAATCTGAATTCCGGTCTCCC
DNA 2: TGGTGGCTACGACGGGATT
B17: CCCCAUU (DNA:RNA)
RNA: B12 RNA with U26C, U27C, G29A
DNA 1: CAATCTGAATTCCGGTCTCCC
DNA 2: TGGTGGCTACGACGGGATT
B18: AUUUGAC (DNA:RNA)
RNA: B12 RNA with C25A, C28U, U30A, U31C
DNA 1: CAATCTGAATTCCGGTCTCCC
DNA 2: TGGTGGCTACGACGGGATT
B19: CUAUAUU (DNA:RNA)
RNA: B12 RNA with U27A, C28U, G29A
DNA 1: CAATCTGAATTCCGGTCTCCC
DNA 2: TGGTGGCTACGACGGGATT
B20: GCAACUA (DNA:RNA)
RNA: B1 RNA with A25G, C27A, A29C, A30U, G31A
DNA 1: CAATCTGAATTCCGGTCTCCC
DNA 2: TGGTGGCTACGACGGGATT

Target: T1, RBFOX1 RRM RbFoxmut (Fox-RRM*)
Assay: EMSA; HiTS-Eq, 1 nM pool, 10 min; buffer printed only for the single-RNA assays: 10 mM Tris pH 7.5, 150 mM NaCl, 3.4 mM EDTA, 0.001% NP-40, 30 C
Details: tags: His6 N-terminal (pET28a); label: 5' 32P
Outline: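 These values rest on relative association constants, computed from read-count changes of each RNA species versus the control reaction and normalised to the cognate motif. Reads came from free RNA recovered by 8% native PAGE after purified RbFox RRM (wild type or mutant) at increasing concentrations was equilibrated for 10 min in 50 µL with 1 nM of a 5′-radiolabelled pool with 7 randomized nucleotides and DNA-annealed flanks.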

First: B1
Second: B2
The binding signal of the first is lower: 0.122 KA relative to UGCAUGU for the first, 0.123 KA relative to UGCAUGU for the second.

Compared with B3, B4 is lower in binding signal: 0.0701 KA relative to UGCAUGU for the first, 0.0677 KA relative to UGCAUGU for the second.

First: B5
Second: B6
The binding signal of the first is higher: 0.101 KA relative to UGCAUGU for the first, 0.0858 KA relative to UGCAUGU for the second.

Compared with B7, B8 is lower in binding signal: 0.1 KA relative to UGCAUGU for the first, 0.0891 KA relative to UGCAUGU for the second.

First: B9
Second: B10
The binding signal of the first is higher: 0.0915 KA relative to UGCAUGU for the first, 0.0846 KA relative to UGCAUGU for the second.

First: B11
Second: B12
The binding signal of the first is lower: 0.0937 KA relative to UGCAUGU for the first, 0.131 KA relative to UGCAUGU for the second.

First: B13
Second: B14
The binding signal of the first is higher: 0.129 KA relative to UGCAUGU for the first, 0.117 KA relative to UGCAUGU for the second.

First: B15
Second: B16
The binding signal of the first is higher: 0.117 KA relative to UGCAUGU for the first, 0.106 KA relative to UGCAUGU for the second.

Compared with B17, B18 is higher in binding signal: 0.0919 KA relative to UGCAUGU for the first, 0.119 KA relative to UGCAUGU for the second.

Compared with B19, B20 is higher in binding signal: 0.076 KA relative to UGCAUGU for the first, 0.0869 KA relative to UGCAUGU for the second.
